# Results taken from PubChem BioAssay AID463173 (ICCB-Longwood Screening Facility, Harvard Medical School, 2010).
# Hit rate of the full screen: of about 52,000 compounds, about 4,300 (8.3%) were called active. Cut-off read from the data, not from the text of the source: active = survival mostly below about 52% (no sharp cut-off); inactive = mostly above about 56%. The list shows a part of the results.
# Tested on: DeltatarO mutant
# Experiment: growth inhibition of S. aureus wild type versus tarO mutant, primary screen, teichoic acid synthesis inhibitors, RN4220, OD600 (AID 463173)
# Details: OD600, 18 h, active compounds read low, screened at 18.75 µg/mL (by protocol)
row,SMILES,survival
1,CC(=O)Nc1n[nH]c(-c2ccc(C)cc2)n1,inactive: 89%
2,CCCCOC(=O)c1cccc(NC(=O)/C=C/c2ccccc2Cl)c1,active: 14%
3,COc1ccc(OC)c(NC(=O)CSc2nc3ccccc3c(=O)n2CCC(=O)NC2CCCCC2)c1,inactive: 94%
4,O=C(Cn1c(SCC(=O)Nc2ccc(F)cc2)nc2ccccc21)NCc1ccccc1Cl,inactive: 101%
5,N#Cc1c(C(F)(F)F)cc(-c2cccs2)nc1SCC(=O)Nc1cccc(C(F)(F)F)c1,inactive: 48%
6,COc1ccc(S(=O)(=O)N(Cc2nc(-c3ccc(Cl)cc3)no2)C2CCCCC2)cc1,inactive: 106%
7,Cc1ccc(S(=O)(=O)NCc2ccc(C(=O)NCCc3cccc(C)c3)cc2)cc1,inactive: 86%
8,Cc1ccc(Cn2c(=O)n(-c3cc(C)cc(C)c3)c(=O)c3oc4ccccc4c32)cc1,inactive: 76%
9,O=C(c1ccccc1Br)N1CCC(c2nc3ccccc3o2)CC1,inactive: 82%
10,O=S(=O)(c1ccc(-n2cnnn2)cc1)N1CCN(c2cccc(C(F)(F)F)c2)CC1,inactive: 70%
11,CCC1(c2csc(Nc3ccccc3C)n2)CCC(=O)O1 (stereo unspecified),inactive: 89%
12,Cc1oc(C)c2c(=O)cc(-c3ccc4c(c3)OCO4)cc(OC(=O)c3cccc(Cl)c3)c12,inactive: 94%
13,COc1ccc(-n2ncc3c2ncn2nc(Cc4ccccc4)nc32)cc1,inactive: 78%
14,Cc1ccccc1CNCc1c(C(=O)O)c(C)n(Cc2ccc(F)cc2Cl)c1C,inactive: 59%
15,CC(=O)Nc1ccc(C(=O)Nc2ccc3c(c2)N(C2CCCC2)C(=O)c2ccccc2S3)cc1,active: -4%
16,CN(C(=O)c1ccccc1)C1CCS(=O)(=O)C1 (stereo unspecified),inactive: 90%
17,Clc1ccccc1CN1CCc2nc(N3CCN(c4ncccn4)CC3)ncc2C1,inactive: 87%
18,Cc1ccc(C(=O)N2CCCn3c2nc2ccccc23)cc1,inactive: 70%
19,Cc1ccc(-c2noc(-c3nnn(-c4ccc(Br)cc4F)c3C)n2)cc1,inactive: 83%
20,O=C(N1CCOCC1)N1CCN(Cc2ccccc2)CC1,inactive: 103%
21,O=C(Nc1ccc(F)cc1)c1cc2cc3ccc(Cl)cc3nc2o1,inactive: 84%
22,NC(=O)C1CCN(C(=O)CCSc2ccc(Cl)cc2)CC1,inactive: 97%
23,COc1cc2c(cc1NC(=O)COc1ccc(Cl)cc1)oc1ccccc12,active: 46%

row,SMILES,survival
1,CCC1Oc2ccccc2N(CC(=O)NCCc2ccc(OC)c(OC)c2)C1=O (stereo unspecified),inactive: 115%
2,O=C(NCCc1ccccc1)c1cnc2sc(N3CCCCC3)nn2c1=O,inactive: 82%
3,O=C(O)CSc1nc2ccccc2c(=O)n1Cc1ccco1,inactive: 99%
4,COc1cc(OC)c(NC(=O)N2CCc3cc(S(=O)(=O)N4CCC(C)CC4)ccc32)cc1Cl,inactive: 89%
5,O=C(c1cc2c(s1)-c1ccccc1OC2)N1CCN(c2ccc(F)cc2)CC1,inactive: 59%
6,COc1ccc(CCNS(=O)(=O)c2ccc(N3CCCCS3(=O)=O)cc2)cc1,inactive: 79%
7,COc1ccc(-n2ncc(C(=O)NCCN3CCOCC3)c2C2CCN(C(=O)OC(C)(C)C)CC2)cc1,inactive: 119%
8,COc1ccc(OC)c(CCNC(=O)Cn2nc(C)n3c(cc4sccc43)c2=O)c1,inactive: 99%
9,CCc1c(C)sc2c1CCN(C(=O)Nc1cc(C)ccc1C)C2c1ccc(OC)cc1 (stereo unspecified),inactive: 83%
10,Cc1nc(-c2cccc(S(=O)(=O)N3CCC(C(=O)NCc4ccccc4Cl)CC3)c2)no1,inactive: 82%
11,Cc1cc(C)cc(NC(=O)c2cc(S(=O)(=O)N3CCCC3)ccc2F)c1,inactive: 92%
12,Cn1nc(-c2ccccc2F)c2cc(C(=O)NCc3cccc(Cl)c3)sc21,active: 41%
13,Cc1ccc(C)c(NC(=O)c2nnn(Cc3ccc(F)cc3Cl)c2N)c1,inactive: 71%
14,Cc1cccc(CSc2nnc(CCCCCN)o2)c1,inactive: 75%
15,COc1ccc(CCNC(=O)CCS(=O)(=O)c2cc3c(cc2Cl)NC(=O)CO3)cc1OC,inactive: 90%
16,O=C(COc1ccccc1)Nc1nnc(SCc2cc(=O)n3cc(Cl)ccc3n2)s1,inactive: 90%
17,CCc1nnc(SCC(=O)Nc2cccc(C(F)(F)F)c2)c2cc3oc(C)cc3n12,inactive: 66%
18,COc1ccc(-c2noc(CSc3nnc(Cc4ccccc4)n3-c3cccc(C)c3)n2)cc1,inactive: 69%
19,COc1ccc(/C=C/C(=O)Nc2ccc3nc4c(c(Nc5ccc(OC)c(OC)c5)c3c2)CCCC4)cc1,inactive: 74%
20,CCCc1nn2cc(-c3ccc(C)c(C)c3)nc2s1,inactive: 100%
21,CCOC(=O)Cc1c(C)nc2c(-c3ccc(Cl)cc3)c(C(F)(F)F)nn2c1C,inactive: 63%
22,c1ccc2c(c1)ncc1nncn12,inactive: 79%
23,CC1CCC(NC(=O)Cn2ncc3c4ccccc4n(Cc4ccc(F)cc4)c3c2=O)CC1 (stereo unspecified),inactive: 73%

row,SMILES,survival
1,O=c1[nH]c2ccc(NCc3ccc(-c4ccc(F)cc4)o3)cc2[nH]1,inactive: 97%
2,Cc1ccc(Nc2ncc(C(=O)Nc3ccc(F)cc3F)c3ccccc23)cc1Cl,active: 37%
3,CC(=O)c1ccc(NC(=O)CSc2ccc3nnc(CCNS(=O)(=O)c4ccc(C)cc4)n3n2)cc1,inactive: 67%
4,CCC1CCCCN1S(=O)(=O)c1cc2c(cc1C)NC(=O)CO2 (stereo unspecified),inactive: 105%
5,Cc1ccc(CN(C(=O)COc2ccc([N+](=O)[O-])cc2)c2ccccn2)o1,active: 62%
6,COc1ccc(CNC(=O)c2nn(C)c3c2CS(=O)(=O)c2ccccc2-3)cc1,inactive: 69%
7,CC(=O)c1cccc(NC(=O)C2CCN(S(=O)(=O)c3ccccc3)CC2)c1,inactive: 56%
8,CC(=O)N1CCc2cc(S(=O)(=O)NC(CC(C)C)C(=O)NCCc3cccc(C)c3)ccc21 (stereo unspecified),inactive: 91%
9,CCOCCCNC(=O)c1ccc2c(=O)n(CCc3ccc(OC)c(OC)c3)c(=O)[nH]c2c1,inactive: 78%
10,CCOc1ccccc1CNC(=O)CSc1nnc(C)c2c(C)n(-c3ccccc3)nc12,inactive: 83%
11,Cc1oc(-c2ccccc2Cl)nc1CS(=O)(=O)CC(=O)NC(C)c1ccccc1 (stereo unspecified),inactive: 63%
12,CCC(C(=O)Nc1ccccc1OC)n1c(C(=O)OC)cc2sc(Cl)cc21 (stereo unspecified),active: -6%
13,Cc1ccc2onc(CNC(=O)NCc3ccccc3)c2c1,inactive: 86%
14,CCc1ccc(OCC(=O)Nc2cc(-c3nc4cc(C)ccc4o3)ccc2C)cc1,inactive: 65%
15,CC(=O)Nc1ccc(N2C(=O)CC(N3CCCCC3C)C2=O)cc1 (stereo unspecified),inactive: 95%
16,CCCNC(=O)C1CCC(CNS(=O)(=O)c2ccc3c(c2)CC(C)N3C(C)=O)CC1 (stereo unspecified),inactive: 99%
17,CN(Cc1ccc(F)cc1)S(=O)(=O)c1nnc(NC(=O)c2ccccc2)s1,inactive: 102%
18,CC(C)N(C(=O)CSc1nnc(-c2ccc3c(c2)OCO3)n1C)C(C)C,inactive: 81%
19,Cc1ccc2oc(-c3cc(NC(=O)c4oc5ccccc5c4C)ccc3Cl)nc2c1,inactive: 62%
20,O=C(COc1cc2oc(=O)c3c(c2cc1Cl)CCC3)N1CCCC1,inactive: 65%
21,Cc1ccc2oc(=O)n(Cc3ccccc3Cl)c2c1,active: -3%
22,CCOC(=O)c1c(C)[nH]c(C)c1S(=O)(=O)N1CCC(C(=O)Nc2ccc(C)c(N(C)C)c2)CC1,inactive: 84%
23,CC(C)(C)OC(=O)N1CCC(c2c(C(=O)N3CCN(Cc4ccccc4)CC3)cnn2-c2ccc(Cl)cc2)CC1,inactive: 82%

row,SMILES,survival
1,Cn1cc(C(=O)NCCc2ccccc2)c(=O)c2cc(S(=O)(=O)N3CCCCC3)ccc21,inactive: 66%
2,CCc1ccc(N2C(=O)CN(S(=O)(=O)CC)CC2(C)C(=O)NC2CCCCC2)cc1 (stereo unspecified),inactive: 84%
3,COc1ccc(-c2nc3n(c2NC(C)(C)C)CCN(C(=O)Cc2ccccc2F)C3)cc1,inactive: 88%
4,Cc1cc(-c2ccc(C)c(S(=O)(=O)NCc3cccs3)c2)on1,inactive: 72%
5,CCOc1ccc(Nc2ncnc3scc(-c4ccc(OC)cc4)c23)cc1,inactive: 98%
6,Cc1ccc(C(=O)NCc2ccccc2)cc1NC(=O)c1nsc2ccccc12,inactive: 84%
7,O=C1CCC(=O)c2oc3ccccc3c2N1,inactive: 89%
8,Cc1c(NC(=O)CN2C(=O)c3ccccc3C2=O)c(=O)n(-c2ccccc2)n1C,inactive: 94%
9,CCC(c1nnnn1CCOC)N(Cc1cc2ccc(OC)cc2[nH]c1=O)C1CCCC1 (stereo unspecified),inactive: 92%
10,CCS(=O)(=O)c1ncc(Cl)c(C(=O)NCc2ccccc2)n1,inactive: 50%
11,O=C(CNC(=O)c1ccccc1)OCc1cc(=O)n2nc(C3CC3)sc2n1,inactive: 67%
12,Cc1ccc(Nc2c(-c3ccc(C)o3)nc3cccc(C)n23)cc1,inactive: 20%
13,CCC1CCCCN1C(=O)CCS(=O)(=O)c1cc2c(cc1C)NC(=O)CO2 (stereo unspecified),inactive: 81%
14,O=c1c2oc3ccccc3c2n(Cc2ccc(Cl)cc2)c(=O)n1Cc1ccccc1,inactive: 108%
15,COC(C(=O)Nc1ccc2c(c1)OCCO2)c1ccccc1 (stereo unspecified),inactive: 87%
16,CCC(=O)Oc1ccc2c(c1)nc(C)n2CC,inactive: 76%
17,COCCn1nnnc1C(CC(C)C)N1CCN(c2cc(Cl)ccc2C)CC1 (stereo unspecified),inactive: 78%
18,CCn1cc2nc(SCc3cccc(C(F)(F)F)c3)n(Cc3ccc(OC)cc3)c(=O)c2n1,inactive: 78%
19,CC(=O)Nc1c(C)nn(-c2ccccc2)c1N1CCC(C(=O)NCc2ccc(F)cc2)CC1,active: -1%
20,COc1cc(Cl)c(C)cc1NC(=O)Cn1c(C)c2cnn(-c3ccccc3)c(=O)c2c1C,inactive: 88%
21,CC(=O)c1ccc(NC(=O)CSc2nnc(N)s2)cc1,inactive: 69%
22,O=C(O)CC1S/C(=N/N=C/c2ccccc2)NC1=O (stereo unspecified),inactive: 84%
